In all, about 4,500 sequences were measured (“median log2 fold change of GCK-ALFA target abundance (FLAG IP / Myc IP barcode read proportion)”: median about 0.078, lowest 2% from about -0.6 on). Some of the results follow.
B1: GBRAP_52_6373 (protein)
chain: MEERARELARRILELAEAGDEEGLREEVRRIVEEESDELIAAVLRELRDMILTEPGLDPEALLTAAATLASEVLEAEKGTPETWAALTELLAAALALEQA
B2: GBRAP_139_3726 (protein)
chain: SAEEEKIKEVVELAKKSIEEGYKYVSEVADKLNSMSLETAEKALEAIAEAAKEFSFDDVEAFFDKLIKEIKEKHKNEDLAELAEAARNRALAAVAVREEA
B3: GBRAP_166_4960 (protein)
chain: AVEEARAEVEALLARFEAEGPRLSEEERREMVLEIAEALGRLREAGAPEEEILELATRLIILATRAGLPVSFVEAALVNIAGLPIDLVDKAVALAEKRLA
B4: GBRAP_160_4044 (protein)
chain: KEKYEKLEKETKEIFEEAKELIEGQSAEEAAVIAAVAIGEIILKAEELGVDDEELLEKIDKVGDELVATLLANPDLTEEEIKALLEKAEEEILKAIKEAK
B5: GBRAP_128_3325 (protein)
chain: MNEERIKEAEEIIKEIVKADVEEAKKLTEELLKLMETMTDEERDIVVEIMEKELEKLDAEKLDAIADTIRELQPTLDPLTARYAAEIEVEALNLAEEKEE
B6: GBRAP_14_3800 (protein)
chain: MEERKKAINDIADETLEILEEILADAPEEVRERVLALVEEARDRIIEENLTPDEVDELRDELLAEVAEILADAPADVRAQVLAAIDVGFGEIIIEIEELE
B7: GBRAP_64_6485 (protein)
chain: MEEIEELHEETLEKAKELVELLKDSSEELQEQAEEVLELIEESKEASLEEAADLLAEAAKLLNEILKSPELTEEQRDQVAELLDLVSELLWLVVEEELKK
B8: GBRAP_117_2584 (protein)
chain: SETEEKVEEIAEEMVELVKETVAKMKEASPEEAEKLRAETEKEVKEKVKEMIELTTREKVLEVLEEESRDLDAEAYFFLFNAAEEAFEEVEEEEREEEEE
B9: GBRAP_52_6081 (protein)
chain: MKEKIEAIAEAIVEAIAAGDLDGALALMREAIETLSVEEIKEMLVLAAKKVAALGEEQHERFVEALDRVYDLLLEAGISEEDALLIVGDAEAALAKEVAA
B10: GBRAP_128_3508 (protein)
chain: SMEEVVAKVKELMEKIKEADEETAAELTEEIVELLNSVSLETAEAAVEVILEMLPKLSKEKLLVLADTLEKKRPEVSPEVANLVADIAVEALNEAEEKEE
B11: GBRAP_52_6376 (protein)
chain: AVEEAARLLRAALEKIIAGGPREEVEALAKEIVKFSEEVIEEAARLVAEEILKLSPEEAEAYLDAAFELADILEEEGLDENIASLIEAEIGKAAYEVSQR
B12: GBRAP_128_3489 (protein)
chain: ADPEKVERAKRLVREAAESDLETARRLAEEIVELLAESDPETREAIVEAIEEEAPKLSPEHLEVMMDVFDERAPEADPETRQAINDVRVVLGAELLEKEE
B13: GBRAP_137_3614 (protein)
chain: KTVTITFSEEDGVAIAEIEADESVDQEKLLELIEEVAKKHGVKLVIAQSEDENDITYYLVGTPEKIIAAVKDLIKRLKEELGAEVVLESDGAEELVEKVK
B14: GBRAP_160_4323 (protein)
chain: EEELEKLEKEIEEIAEEAKEMIEGESAAERITIARVALGEIILEVEENPAVSDELEEQVAKIADAAEATLRANPDLSEEEVKALLEAATKEILELIRKEK
B15: GBRAP_11_2721 (protein)
chain: KAEKLKALAEKAEALAEKVEKLIKEGPKKEEIKKLAEEVEKLREEAKKIGASEDVLKTLDIAAENLKKAIEDPSNVEEHLKNAAAALRVAAGQLLLEAEE
B16: GBRAP_45_5811 (protein)
chain: SEELKETREKLEELLKKAKELAEKLKEEDPEKFTPLLELLEEAEKLLKEEPESLEAWERIEELLEEALKLALDSKKASAELLETLLEAANLALEAKELLE
B17: GBRAP_128_3379 (protein)
chain: MDEEKLERVRELVRRAIESDVEETRELTREVVRLMGTLSPEEREAAAEIVIEALPEFSREKLDAIADTIRELRPELDPLGQELAAEVEVAALNRAEELEE
B18: GBRAP_160_4678 (protein)
chain: MEEAEELIKEIREEAEEALEMMEGESLEERVAVLRVLTGDIILLLEESPLATDEVIDLADELGDELIAYVRAHPDLTPEELRARLEEVTKKIEEALKESL
B19: GBRAP_83_6986 (protein)
chain: AEKIVVAAPGDRIEEMVDIVIDLTKEEGYDVSVEILTTKEEWEKVLEAVRRLGEAGIETEITVLVEGATEEEAKEMKEELEEIAKELGVNFKIEVEVLEP
B20: GBRAP_150_3936 (protein)
chain: DLEELLLLADSVADDLTLALEEGVDRLRALERALELLEDIEEEADPELKKIAREARELVEEAIKLLRAGGPQEEIDKLLREALKLAEELAKELEKKIEEE
B21: GBRAP_137_3649 (protein)
chain: PNVTIRVKTEGDLVLIEIEFDDPEKAEEVKELILDVAHEHGALAVSVEIKEDGTLEAEIWVPKDKAQALIDALVERLRKELGANVTVIDEDTGEVKEYKA
B22: GBRAP_128_3380 (protein)
chain: IDEEKLKKVKELVEKAIESDVEETRKLTREVVELMGELTPEEKEKAAEIVIEKLPEFTKEKLEAIADTIREERPKLDPFGQELAAEVEVEALNEAEELEE
B23: GBRAP_11_2633 (protein)
chain: KKEKIEKAAKLAKEIVKVLEKLLEEGVDNEELQKELKKLIEELKKLVKEIGNKALINDVEVAEELYEEALEDPENREFYIKLLLAQARIIEAELEELLEE
B24: GBRAP_128_3412 (protein)
chain: SREEIVEKARELLEEMLTADEEEQKKLARELADLILESDLETAEAIAEVILEMLPKFTAKQLDILADALRERRDEFTPEKQNLVADVIVAALNEREELEE
B25: GBRAP_160_4634 (protein)
chain: DESLEEMKEIIDEYTEIALEYIDEGDLDGALNALRMMTGDLVMEAMEDEKFSDEDVDELDKLGDKAVAEFEAAKDKSKEELKALVEKAAEELKKKVEEKY
B26: GBRAP_166_4955 (protein)
chain: MLEEVIEETREFIEELAEKMKTANEEEKLELQAEIAERIAEARDAGVSREDILELIGYALEKVKEVGGSVRQFLGAIDIFVDLSEEELDEILERAKEVEA
B27: GBRAP_52_6219 (protein)
chain: MEEEARRKAEEILETVRERGVEAATELLIELAKELSVEELKLVFEELVRLARESSAEVAEALLEALLKAEDALIAAGVPEEDVADAIAALARVAVEKRAA
B28: GBRAP_11_2768 (protein)
chain: KKEELKKAAELAEKAAKTVEKLLKEGVDNEELLKEIEELLKELKKLTEKYGNEDMKKLVKIAEELLEEIKKDPENAEEYAKELKATLDVLAGQYLLEAEE
B29: GBRAP_78_6693 (protein)
chain: EVEELLDKALEHLGKAASILAKMNTPEALDILGKVIDVASTVWEAEEGEADLKELEEALKLLKEALKEAKKIKTEEAKEAAKELEKAIEYLEKAIKLMKK

target: GABARAP, O95166; assay: median log2 fold change of GCK-ALFA target abundance (FLAG IP / Myc IP barcode read proportion) (log2 ratio); each designed protein is fused to an ALFA-tag nanobody in HEK293 cells to bring the named protein to FLAG-tagged glucokinase (GCK); Myc marks an untargeted standard; higher = target protein stabilised (more abundant); settings: target protein: 3xFLAG-MCP-GCK-ALFA reporter; HEK293 landing pad (RPLP)
Sequence (O95166 whole entry, the tested form may be a part): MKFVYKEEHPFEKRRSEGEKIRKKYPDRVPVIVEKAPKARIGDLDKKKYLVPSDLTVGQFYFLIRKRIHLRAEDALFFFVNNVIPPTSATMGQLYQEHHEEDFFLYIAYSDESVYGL
Summary of the method: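 The readout is target abundance, the per-binder median log2 ratio of FLAG to Myc barcode read proportions. It came from HEK293 landing-pad cells carrying a recombined ALFA-nanobody-fused binder library, induced with 2 μg mL^−1 doxycycline and transfected with a plasmid for a FLAG-tagged target and a Myc-tagged standard. After 48 h, lysates were immunoprecipitated with anti-FLAG and anti-Myc, and circular RNA barcodes were reverse transcribed, amplified and sequenced. Each barcode needed a proportion of at least 10^−7 in both replicates and each binder at least 3 barcodes per replicate, a pseudocount of 10^−6 was added, and the replicates were pooled.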

Binder | median log2 fold change
B1 | -0.998
B2 | 0.171
B3 | 0.265
B4 | -0.219
B5 | 0.156
B6 | -0.397
B7 | -0.204
B8 | 0.237
B9 | -0.308
B10 | 0.191
B11 | -0.084
B12 | 0.203
B13 | -0.301
B14 | -0.00831
B15 | 0.0939
B16 | 0.129
B17 | 0.284
B18 | -0.351
B19 | -0.0425
B20 | -0.148
B21 | 0.165
B22 | 0.0893
B23 | -0.0434
B24 | 0.223
B25 | 0.0771
B26 | -0.0229
B27 | 0.2
B28 | 0.117
B29 | -0.41
